Measurements from the supplement of paper PMC4967469.

Legend:
Test in all cases: Viability of human cancer cell lines after 72 h of drug (GDSC screen)
[1] = compound: C#Cc1cccc(Nc2ncnc3cc(OC)c(OCCCCCCC(=O)NO)cc23)c1 [CUDC-101]; details: top dose 5.12 µM; top dose inferred
Experimental: (§1)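 Human cancer cell lines in 384-well plates, medium with 10% serum, drug for 72 h over a 256-fold dose range (nine 2-fold or five 4-fold steps up to the top dose). Adherent lines were fixed and stained with the nucleic acid dye Syto60, suspension lines read with resazurin; signal relative to control wells, capped at 0 and 100%. One two-parameter sigmoid per drug and line, fitted in a mixed model over all curves with the slope shared within a line.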

[2] = compound: CC(C)(C)c1cc(NC(=O)Nc2ccc(-c3cn4c(n3)sc3cc(OCCN5CCOCC5)ccc34)cc2)no1 [AC220]; details: top dose 1.024 µM; top dose inferred
Experimental: as §1

[3] = compound: COc1cc(F)c(F)c(Nc2ccc(I)cc2F)c1NS(=O)(=O)C1(C[C@H](O)CO)CC1 [RDEA119]; details: top dose 5 µM, top dose inferred
Experimental: as §1

[4] = compound: Fc1cc(-c2ccnc(Nc3ccc(-n4cnc(N5CCOCC5)n4)cc3)n2)cc(N2CCOCC2)c1 [JNK-9L]; details: top dose 5.12 µM; top dose inferred
Experimental: as §1

[5] = compound: NCC(=O)Nc1ccc(-n2nc(C(F)(F)F)cc2-c2ccc3c(ccc4ccccc43)c2)cc1 [OSU-03012]; details: top dose 16 µM; top dose inferred
Experimental: as §1

[6] = compound: O=c1[nH]cc(F)c(=O)[nH]1 [5-Fluorouracil]; details: top dose 32 µM; top dose inferred
Experimental: as §1

[7] = compound: OC[C@H](Cc1ccccc1)Nc1nc(Oc2ccc3c(c2)CCC3)nc2c1ncn2Cc1ccc(-c2ccccc2)cc1 [QS11]; details: top dose 10.24 µM
Experimental: as §1

Row | Cell Line | AUC [1] | pIC50 [1] | AUC [2] | pIC50 [2] | AUC ([3]; screen: GDSC drug entry 1014) | pIC50 ([3]; screen: GDSC drug entry 1014) | AUC [4] | pIC50 [4] | AUC [5] | pIC50 [5] | AUC [6] | pIC50 [6] | AUC [7] | pIC50 [7] | AUC ([3]; screen: GDSC drug entry 1526) | pIC50 ([3]; screen: GDSC drug entry 1526)
1 | SW954 (urogenital system, adherent) | 0.3 | 7.06 | 0.983 | < 5.99 | 0.819 | 5.54 | 0.568 | 6.31 | 0.665 | 5.54 | 0.762 | 4.94 | 0.869 | 5.02 |  | 
2 | SW962 (urogenital system, adherent) | 0.591 | 6.22 | 0.967 | < 5.99 | 0.682 | 5.94 | 0.885 | < 5.29 | 0.628 | 5.61 | 0.92 | < 4.49 | 0.842 | 5.00 | 0.639 | 6.08
3 | SW982 (soft tissue, adherent) | 0.587 | 6.25 | 0.984 | < 5.99 | 0.516 | 6.46 | 0.393 | 6.79 | 0.699 | 5.43 | 0.835 | 4.66 | 0.908 | < 4.99 | 0.71 | 5.90
4 | SW1088 (glioma, adherent) | 0.935 | < 5.29 | 0.966 | < 5.99 |  |  | 0.897 | < 5.29 | 0.857 | < 4.80 | 0.972 | < 4.49 | 0.884 | < 4.99 | 0.898 | < 5.30
5 | SW1271 (small cell lung carcinoma, adherent) | 0.56 | 6.32 | 0.983 | < 5.99 | 0.763 | 5.69 | 0.484 | 6.54 | 0.712 | 5.36 | 0.897 | < 4.49 | 0.917 | < 4.99 | 0.72 | 5.84
6 | SW1417 (large intestine, adherent) | 0.631 | 6.10 | 0.977 | < 5.99 | 0.788 | 5.58 | 0.674 | 5.97 | 0.867 | < 4.80 | 0.958 | < 4.49 | 0.966 | < 4.99 | 0.879 | < 5.30
7 | SW1463 (large intestine, adherent) | 0.904 | < 5.29 | 0.977 | < 5.99 |  |  | 0.596 | 6.15 | 0.825 | < 4.80 | 0.911 | < 4.49 | 0.968 | < 4.99 | 0.688 | 5.81
8 | SW1710 (bladder, adherent) | 0.615 | 6.17 | 0.984 | < 5.99 | 0.76 | 5.74 | 0.441 | 6.66 | 0.476 | 6.07 | 0.955 | < 4.49 | 0.704 | 5.61 | 0.807 | 5.57
9 | SW1783 (glioma, adherent) | 0.8 | 5.66 | 0.991 | < 5.99 | 0.952 | < 5.30 | 0.535 | 6.40 | 0.77 | 5.26 | 0.984 | < 4.49 | 0.965 | < 4.99 |  | 
10 | SW1990 (pancreas, adherent) | 0.956 | < 5.29 | 0.985 | < 5.99 |  |  | 0.657 | 6.02 | 0.674 | 5.47 | 0.942 | < 4.49 | 0.91 | < 4.99 | 0.87 | < 5.30
11 | Saos-2 (osteosarcoma, adherent) | 0.974 | < 5.29 | 0.981 | < 5.99 | 0.932 | < 5.30 | 0.73 | 5.71 | 0.817 | 4.84 | 0.981 | < 4.49 | 0.977 | < 4.99 | 0.968 | < 5.30
12 | SiHa (cervix, adherent) | 0.972 | < 5.29 | 0.987 | < 5.99 | 0.937 | < 5.30 | 0.705 | 5.87 | 0.986 | < 4.80 | 0.987 | < 4.49 | 0.986 | < 4.99 | 0.907 | < 5.30
13 | T84 (large intestine, adherent) | 0.762 | 5.73 | 0.945 | < 5.99 | 0.973 | < 5.30 | 0.686 | 5.97 | 0.716 | 5.39 | 0.813 | 4.75 | 0.859 | 5.06 | 0.92 | < 5.30
14 | T98G (glioma, adherent) | 0.888 | 5.30 | 0.985 | < 5.99 | 0.944 | < 5.30 | 0.596 | 6.24 | 0.88 | 4.84 | 0.958 | < 4.49 | 0.99 | < 4.99 | 0.96 | < 5.30
15 | T-T (oesophagus, adherent) | 0.566 | 6.32 | 0.987 | < 5.99 | 0.876 | 5.31 | 0.384 | 6.82 | 0.648 | 5.59 | 0.96 | < 4.49 | 0.806 | 5.29 | 0.951 | < 5.30
16 | TC-71 (Ewing sarcoma, adherent) | 0.461 | 6.59 | 0.947 | < 5.99 | 0.973 | < 5.30 | 0.703 | 5.97 | 0.891 | 4.88 | 0.842 | 4.77 | 0.992 | < 4.99 | 0.992 | < 5.30
17 | TCCSUP (bladder, adherent) | 0.727 | 5.80 | 0.984 | < 5.99 | 0.859 | < 5.30 | 0.807 | 5.51 | 0.722 | 5.33 | 0.938 | < 4.49 | 0.928 | < 4.99 | 0.905 | < 5.30
18 | TE-1 (oesophagus, adherent) | 0.89 | < 5.29 | 0.979 | < 5.99 | 0.861 | < 5.30 | 0.897 | < 5.29 | 0.584 | 5.74 | 0.932 | < 4.49 | 0.867 | < 4.99 | 0.846 | < 5.30

pIC50: −log10 of the molar value. IC50 is the fitted dose that halves viability relative to control wells, and lower means more sensitive; a limit (>, <) means that the fit lies beyond the doses tested. For AUC the same curve is integrated over the 256-fold range of doses and scaled to a fraction; it is 1 without any effect and falls as sensitivity rises. For some assays here: The top dose, if marked as inferred, comes from the curve model; the source does not state it. For some assays here: Drugs with an entry number were screened twice under separate entries, and the two screens often disagree.
